In paper PMC5912448 (2018):

Legend:
[1] = target: VHO2; test: BLI
[2] = target: VHO1; test: BLI
Sequence of VHO1 (Q86Z14 1-992): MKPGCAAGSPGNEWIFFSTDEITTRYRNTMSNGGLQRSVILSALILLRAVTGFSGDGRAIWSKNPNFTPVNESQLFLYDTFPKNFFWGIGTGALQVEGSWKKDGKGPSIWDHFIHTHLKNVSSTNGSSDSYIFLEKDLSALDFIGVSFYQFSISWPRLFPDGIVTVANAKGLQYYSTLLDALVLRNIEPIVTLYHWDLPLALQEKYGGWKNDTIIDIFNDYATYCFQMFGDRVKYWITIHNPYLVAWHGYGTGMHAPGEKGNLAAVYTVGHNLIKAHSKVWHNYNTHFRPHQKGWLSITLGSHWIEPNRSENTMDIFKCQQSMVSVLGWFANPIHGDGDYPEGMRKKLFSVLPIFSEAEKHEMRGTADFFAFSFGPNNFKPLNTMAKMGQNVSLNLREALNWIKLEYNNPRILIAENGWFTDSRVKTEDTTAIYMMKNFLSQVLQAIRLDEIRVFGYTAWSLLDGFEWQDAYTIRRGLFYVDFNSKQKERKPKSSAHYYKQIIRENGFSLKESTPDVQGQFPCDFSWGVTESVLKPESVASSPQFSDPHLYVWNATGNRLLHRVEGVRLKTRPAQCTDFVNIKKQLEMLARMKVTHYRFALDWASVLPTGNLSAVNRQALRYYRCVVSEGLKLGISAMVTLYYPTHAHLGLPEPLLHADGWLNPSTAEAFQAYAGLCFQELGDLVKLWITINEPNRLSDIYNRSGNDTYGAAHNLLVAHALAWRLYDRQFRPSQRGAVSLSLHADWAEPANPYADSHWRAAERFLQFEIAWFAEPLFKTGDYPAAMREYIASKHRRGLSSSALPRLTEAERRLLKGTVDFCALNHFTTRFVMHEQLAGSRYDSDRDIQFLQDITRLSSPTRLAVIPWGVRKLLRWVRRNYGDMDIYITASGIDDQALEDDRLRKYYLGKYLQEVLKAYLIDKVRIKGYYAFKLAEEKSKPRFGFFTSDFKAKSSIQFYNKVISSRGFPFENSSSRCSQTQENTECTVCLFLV

Sequence of VHO2 (Q86Z14 1-992): as above

B1: human β-Klotho extracellular domain (aa 1–992) His6 (receptor)
chain: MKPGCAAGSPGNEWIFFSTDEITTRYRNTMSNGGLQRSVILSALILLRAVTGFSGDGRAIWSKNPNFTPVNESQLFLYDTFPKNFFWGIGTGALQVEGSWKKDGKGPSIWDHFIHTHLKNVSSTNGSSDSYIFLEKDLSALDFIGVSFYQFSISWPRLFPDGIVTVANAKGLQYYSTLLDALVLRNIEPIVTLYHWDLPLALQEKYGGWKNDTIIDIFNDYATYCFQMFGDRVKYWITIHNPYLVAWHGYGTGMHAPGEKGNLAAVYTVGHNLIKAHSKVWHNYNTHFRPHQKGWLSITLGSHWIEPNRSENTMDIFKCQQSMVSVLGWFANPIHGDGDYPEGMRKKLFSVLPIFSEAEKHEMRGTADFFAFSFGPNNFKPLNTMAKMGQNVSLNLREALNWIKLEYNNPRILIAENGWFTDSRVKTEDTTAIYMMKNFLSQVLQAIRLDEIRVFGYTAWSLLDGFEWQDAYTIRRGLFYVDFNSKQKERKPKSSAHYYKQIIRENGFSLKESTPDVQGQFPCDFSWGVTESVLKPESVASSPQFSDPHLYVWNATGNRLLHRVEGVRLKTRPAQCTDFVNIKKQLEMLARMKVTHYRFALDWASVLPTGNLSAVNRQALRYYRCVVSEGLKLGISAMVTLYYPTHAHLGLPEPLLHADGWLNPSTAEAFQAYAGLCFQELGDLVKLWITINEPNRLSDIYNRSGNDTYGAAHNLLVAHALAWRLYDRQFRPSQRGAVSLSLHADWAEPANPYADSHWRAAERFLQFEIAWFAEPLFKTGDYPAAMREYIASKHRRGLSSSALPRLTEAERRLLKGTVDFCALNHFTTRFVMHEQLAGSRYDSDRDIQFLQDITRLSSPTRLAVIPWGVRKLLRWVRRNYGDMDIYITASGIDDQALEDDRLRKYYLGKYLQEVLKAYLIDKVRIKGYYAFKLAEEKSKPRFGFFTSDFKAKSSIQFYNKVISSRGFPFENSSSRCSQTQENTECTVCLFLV
modifications: biotinylated with EZ-Link Sulfo-NHS-LC-Biotin
Kd [1]: 1.34 nM
Kd [2]: 0.9 nM
